Assay results reported in PubChem BioAssay AID1508642 (National Center for Advancing Translational Sciences (NCATS), 2021).
The campaign covered roughly 43,000 compounds. About 200 (0.47%) were called active. Not shown: some 12% with an inconclusive outcome. Calls come from the whole dose curve; as a rule, active = well fitted cell-killing curve with a large enough effect; inconclusive = small, poorly fitted or top-dose-only effect, or effect the other way; inactive = flat fitted curve, though single readings scatter. Some of the results follow.

Assay: Cell viability qHTS assay in S16 Pmp22-F2sN cells; note: nearly all actives have a fitted effect of over 65% in size
Conditions: S16 Pmp22-F2sN Schwann cells (luciferase reporters placed in the Pmp22 gene) viability, CellTiter-Glo, 24 h; series mostly up to 57.5 µM; activity change, negative = cytotoxicity: at the top concentration
Method in brief: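 CellTiter-Glo counter-screen, qHTS, 1536-well. Cells: S16(c9) Pmp22-F2sN, 500-1,000/well in DMEM + 10% FBS. Cpd 23 nL pin transfer, 24 h, 37C/5% CO2. Read: luminescence, CCD imager.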
% is set by controls: 0 for no effect and ±100 for the full control effect; potency is the fitted concentration of half-maximal effect.

SMILES | activity change, negative = cytotoxicity | Potency
COC(=O)c1cc2oc(C)cc2n1Cc1ccc(Br)cc1F | inactive: 7.72% | 
CCC(Oc1ccccc1-c1nnc(-c2ccccc2)o1)C(=O)Nc1ccc(C(C)=O)cc1 (stereo not drawn) | inactive: -6.36% | 
COC(=O)c1ccc(NC(=O)CSc2ccc(-c3sc(-c4ccccc4)nc3C)nn2)cc1 | inactive: -11.5% | 
COc1ccc2nc(N(Cc3cccnc3)C(C)=O)sc2c1 | inactive: 13.9% | 
O=C(NCc1cccnc1)c1nn(-c2ccc(Cl)cc2)nc1CO | inactive: -6.27% | 
COc1cc(Cl)c(C)cc1Nc1nc2ccccc2c2nnc(C)n12 | inactive: 5.58% | 
COc1ccc(C2CC(=O)N3CN(C4CCCCC4)CSC3=C2C#N)c(OC)c1 (stereo not drawn) | inactive: 6.68% | 
O=C(NC1CC(=O)N(c2ccc(F)cc2)C1)c1ccco1 (stereo not drawn) | inactive: 10.5% | 
COc1ccccc1C1CC(=O)NC(C)=C1C(=O)OC1CCCCCC1 (stereo not drawn) | inactive: 5.45% | 
COc1ccc(Nc2ncc3c(n2)CCN(Cc2ccccc2C)C3)c(OC)c1 | inactive: 4.99% | 
Cc1nn2c(=O)cc(COC(=O)c3ccc(NC(=O)COc4ccc(C)c(C)c4)cc3)nc2s1 | inactive: -0.137% | 
O=c1n(Cc2ccccc2Cl)c2ccccc2c2nc(-c3ccccc3)nn12 | inactive: 2.36% | 
CC(C)NC(=O)c1ccc(Cn2c(SCC(N)=O)nc3ccccc3c2=O)cc1 | inactive: 0.633% | 
CCOc1ccc(C2CC(=O)Nc3nc(SCc4ccccc4C)[nH]c(=O)c32)cc1OC (stereo not drawn) | inactive: -10% | 
Cc1ccc(CCNC(=O)c2ccc3nc(N4CCC(C)CC4)sc3c2)cc1 | inactive: 20.5% | 
COC(=O)C(C)Sc1ccc2nnc(CCNS(=O)(=O)c3ccc(C)cc3)n2n1 (stereo not drawn) | inactive: 4.47% | 
Cc1ccc(C)c(NC(=O)n2ncc3cc(Cl)ccc32)c1 | inactive: 5.23% | 
Cc1ncc(CO)c2c1Oc1nc(-c3ccccc3Cl)nc(SCc3ccccc3F)c1C2 | inactive: -29.2% | 
COCCCNC(=O)Cn1cnc2sc(C)c(S(=O)(=O)N3CCC(C)CC3)c2c1=O | inactive: -3.33% | 
O=C(NCc1ccccc1)c1ccc(NC(=O)N2CC3CCCN3c3ccccc32)cc1 (stereo not drawn) | inactive: 8.07% | 
Cn1c(=O)oc2cc(S(=O)(=O)CCC(=O)N3CCN(c4cccc(Cl)c4)CC3)ccc21 | inactive: -0.23% | 
CCNC(=O)C1CCN(S(=O)(=O)c2ccc3c(c2)CCCN3C(C)=O)CC1 | inactive: 1.51% | 
CCOc1cc(C(=O)Nc2ccc(-c3cn4cccnc4n3)cc2)cc(OCC)c1OCC | inactive: 10% | 
Cc1nc2ccccn2c(=O)c1NC(=O)c1ccc(F)c(F)c1 | inactive: -1.76% | 
Cc1cccc(NC(=O)C2CCCN2S(=O)(=O)c2ccc3nc(-c4ccccc4)[nH]c3c2)c1 (stereo not drawn) | inactive: -22.1% | 

SMILES | activity change, negative = cytotoxicity | Potency
Cc1ccc2c(c1)c1c(c(=O)n(-c3ccccc3)c(=O)n1CC(=O)NCC1CCCO1)n2C (stereo not drawn) | inactive: 6.16% | 
CCCCNC(=O)CCCCCn1c(=O)[nH]c2ccccc2c1=O | inactive: -2.82% | 
Cc1ccc(S(=O)(=O)c2nnn3c2nc(NCc2ccc4c(c2)OCO4)c2sccc23)cc1C | inactive: 4.74% | 
Cc1ccc(C)c(N2CCN(S(=O)(=O)c3cc(C(=O)Nc4ccc(Oc5ccccc5)cc4)ccc3F)CC2)c1 | inactive: -19.9% | 
Cc1ccc(NC(=O)CN2C(=O)c3cccnc3Oc3ccc(Cl)cc32)cc1 | inactive: 0.0976% | 
Cc1ccccc1OCCSc1nc2ccc(NC(=O)c3cccc(F)c3)cc2s1 | inactive: 1.08% | 
COc1cc2ncc3c(-c4ccc(C)cc4)nn(-c4ccc(F)cc4F)c3c2cc1OC | inactive: -22.9% | 
COc1ccc(Cn2ccnc2SCC(=O)Nc2nc3ccccc3s2)cc1 | inactive: -7.67% | 
COc1ccc(NC(=O)c2cc3c(s2)-c2c(C)cccc2OC3)cc1Cl |  | active: 28.2 µM
CC(=O)c1ccc(NC(=O)c2ccc3c(c2)N(Cc2cccc(Cl)c2)C(=O)c2ccccc2S3=O)cc1 (stereo not drawn) | inactive: 6.93% | 
Cc1ccccc1-c1nc(CN2CCC(C(=O)NCc3ccc(F)cc3)CC2)c(C)o1 | inactive: -1.45% | 
CCOC(=O)c1c(C)n(-c2ccccc2)c2ccc(OC(=O)COc3ccc(Cl)cc3)cc12 | inactive: -0.925% | 
Cc1ccn2c(Nc3ccc4c(c3)OCCO4)c(-c3ccc(C)o3)nc2c1 | inactive: -23.2% | 
Cc1cc(Nc2ccccc2C)n2nc(Cc3ccc(Cl)cc3)nc2n1 | inactive: 11.6% | 
Cc1c(C(=O)NCc2ccccc2Cl)sc2ncnc(N(C)C3CCCCC3)c12 | inactive: -16.7% | 
COc1ccc(-c2cn3nc(N4CCCC(C(=O)NCc5ccc(Cl)cc5)C4)sc3n2)cc1 (stereo not drawn) | inactive: 7.94% | 
Cc1ccc(CCNC(=O)C2CCCN(c3nnc(C)c4c(C)n(-c5ccccc5)nc34)C2)cc1 (stereo not drawn) | inactive: -3.07% | 
CC1=C(C(=O)NCc2ccccc2F)C2(CCCCC2)OC1=O | inactive: -9.5% | 
CC1=C(c2ccc(F)cc2)S(=O)(=O)N=C1N1CCC(C(=O)NCCc2cccc(C)c2)CC1 | inactive: -1.72% | 
COc1cccc(-c2nc(CS(=O)(=O)CC(=O)NCc3cccc(Cl)c3)c(C)o2)c1 | inactive: 3.06% | 
Cc1ccc(CSc2ncc(Cl)c(C(=O)Nc3nnc(C)s3)n2)cc1 | inactive: -0.768% | 
O=C(Nc1ccccc1Cl)N1CCC(CN2CCCC2)CC1 | inactive: 6.26% | 
Cc1ccc(NC(=O)CC2Oc3ccccc3NC2=O)cc1C (stereo not drawn) | inactive: -5.53% | 
COc1ccc(-c2cnnn2-c2ccc(NC(=O)c3ccccc3OC)cc2)cc1 | inactive: -9.07% | 
Cc1c(C(=O)NCc2cccc(Cl)c2)sc2nc3n(c(=O)c12)CCCC3 | inactive: -7.19% | 

SMILES | activity change, negative = cytotoxicity | Potency
COc1ccc(CCNC(=O)CN2C(=O)COc3ccc(S(=O)(=O)N4CCCC4)cc32)c(OC)c1 | inactive: 7.34% | 
COc1ccc(-c2nc3sc(CCNC(=O)C(=O)Nc4cccc(NC(C)=O)c4)c(C)n3n2)cc1 | inactive: -0.618% | 
Nc1nn(-c2ccccc2)nc1C(=O)OCc1ccc(Cl)cc1 | inactive: 4.09% | 
Cn1c(=O)n(Cc2c(F)cccc2Cl)c(=O)c2c1nc1n2CCN1c1ccc(F)cc1 | inactive: 15.5% | 
Cc1ccc(Cn2c(=O)n(Cc3ccc(C(=O)NC4CCN(Cc5ccccc5)CC4)cc3)c(=O)c3ccccc32)cc1 | inactive: 16.7% | 
CCc1cccc(NC(=O)C2CCCN2S(=O)(=O)c2ccc3nc(-c4ccccc4)[nH]c3c2)c1 (stereo not drawn) | inactive: -4.94% | 
CC(=O)c1ccc(NC(=O)CCn2cccn2)cc1 | inactive: 8.27% | 
Cc1ccc(-n2c(C)nc3c(cnn3-c3ccccc3)c2=O)cc1 | inactive: 19.7% | 
CCc1ccc(CNC(=O)c2cccc(-n3c(C)nc4cccnc43)c2)cc1 | inactive: -29.5% | 
CCCc1ccc(OCc2ccc(C(=O)Nc3ccccc3C(=O)OC)o2)cc1 | inactive: 6.06% | 
CCc1ccc(NC(=O)Cn2c(=O)n(-c3cccc(OC)c3)c(=O)c3c(C)c(C(=O)N(C)C)sc32)cc1 | inactive: 3.66% | 
Cc1ccc2oc(C(=O)N3CCC(c4nc5ccccc5s4)CC3)c(C)c2c1 | inactive: 4.62% | 
CN1C(=O)Cc2cc(S(=O)(=O)NCc3ccccc3Cl)ccc21 | inactive: -7.34% | 
O=C(c1ccc(Br)cc1)N(Cc1ccco1)c1ccccn1 | inactive: 10.8% | 
Cc1ccc(C)c(S(=O)(=O)c2nnn3c2nc(NC2CCCC2)c2sccc23)c1 | inactive: -29.5% | 
CCOc1c(CNCCSc2nnnn2C)cccc1OC | inactive: 12.6% | 
COc1ccc(OC)c([C@@H]2Nc3ccc(C(=O)O)cc3[C@@H]3C=CC[C@@H]32)c1 | inactive: -6.26% | 
CCc1cccc(NC(=O)c2cc3c(=O)oc4ccc(C)cc4c3s2)c1 | inactive: 4.77% | 
COc1ccc(CNC(=O)C(CC(C)C)NS(=O)(=O)c2ccc3c(c2)oc(=O)n3C)cc1 (stereo not drawn) | inactive: 3.28% | 
Cc1ccc(S(=O)(=O)c2cn(Cc3ccccc3)c3cc(N4CCCC4)c(F)cc3c2=O)c(C)c1 | inactive: -16.3% | 
CSc1nnc(NC(=O)c2cc(=O)c3cc(C)c(C)cc3o2)s1 | inactive: 2.51% | 
CC1CCc2c(sc3nnn(Cc4ccccc4Cl)c(=O)c23)C1 (stereo not drawn) | inactive: 2.63% | 
CCOc1ccc(S(=O)(=O)c2cc3cccc(OCC)c3oc2=O)cc1 | inactive: 8.3% | 
CCc1ccccc1N(C)C(=O)c1nn(-c2ccc(OC)cc2)c(=O)c2c1c1ccccc1n2C | inactive: -4.46% | 
Cc1cccc(NC(=O)c2ccc3oc(=O)c(S(=O)(=O)c4ccc(F)cc4)cc3c2)c1C | inactive: 2.78% | 

SMILES | activity change, negative = cytotoxicity | Potency
CC(C)NC(=O)CSc1cn(CC(=O)N2CCCCCC2)c2ccccc12 | inactive: 4.06% | 
Cc1ccc(-c2nnc3c4ccccc4c(-c4ccccc4)nn23)cc1 | inactive: 6.71% | 
CCOc1ccccc1NCc1nnc2n1CCCCC2 | inactive: 4.11% | 
COc1ccc(N2CCN(C(=O)c3cnc(N4CCOCC4)c4ccccc34)CC2)cc1 | inactive: -10.8% | 
CCOc1ccccc1Oc1ncnc2c1oc1ccccc12 | inactive: -18.2% | 
CC1CCC(NC(=O)c2ccc3c(c2)N(Cc2ccccc2F)C(=O)c2ccccc2S3(=O)=O)CC1 (stereo not drawn) | inactive: 1.69% | 
CCOc1ccccc1CNCc1c(C(=O)O)n(Cc2ccccc2)c2cc(OC)ccc12 | inactive: -0.0154% | 
CCOc1ccccc1C1C(C(=O)Nc2ccccc2)=C(C)Nc2nc(-c3ccccc3)nn21 (stereo not drawn) | inactive: -5.36% | 
COc1ccccc1OCc1nc2ccccc2n1Cc1ccccc1 | inactive: 8.11% | 
Cc1cccc(N2CCN(Cc3nnc(-c4cccc(Br)c4)o3)CC2)c1C | inactive: -11.4% | 
CCc1ccc(-c2nc(CS(=O)CC(=O)NCc3ccc(F)cc3)c(C)o2)cc1 (stereo not drawn) | inactive: 5.84% | 
Cc1ccc(Cl)cc1NC(=O)CN1C(=O)c2ccccc2Sc2ncccc21 | inactive: 2.8% | 
Cc1ccc(CNS(=O)(=O)c2c(C)nc3sc(C)cn3c2=O)cc1 | inactive: 1.34% | 
CCCn1cnc2cc(NC(=O)c3cc(OC)c(OC)c(OC)c3)ccc21 | inactive: 0.369% | 
COc1ccccc1NC(=O)Cn1c(=O)oc2cc(S(=O)(=O)NCc3ccccc3)ccc21 | inactive: 9.43% | 
CCCOC(=O)c1cccc(NC(=O)CSc2nnc3cc(C)c4ccccc4n23)c1 | inactive: 2.96% | 
Cc1c(Cl)cccc1NC(=O)Cn1c(=O)cc(C)c2c(C)nn(-c3cccc(F)c3)c21 | inactive: -1.34% | 
COc1ccc(NC(=O)c2cc(-c3ccc(F)cc3)no2)cc1OC | inactive: -3.23% | 
COc1ccccc1Cc1nc2ccccc2nc1SCC(=O)Nc1c(C)cccc1C | inactive: 17.7% | 
O=C(Cn1ncn2cccc2c1=O)NCc1cccc(Br)c1 | inactive: -5.3% | 
COc1ccc(N(CC(C)C)S(=O)(=O)c2nnc(NC(=O)c3ccco3)s2)cc1 | inactive: -0.502% | 
CCN(C(=O)CCS(=O)(=O)c1cc2c(cc1C)NC(=O)CO2)c1cccc(C)c1 | inactive: 15% | 
CCn1c(C)c(C)c2cc(C(=O)N3CCN(c4ccccc4)CC3)ccc21 | inactive: 5.05% | 
